In all, about 110,000 compounds were measured (“z-score”: median about -0.1, highest 2% from about 2 on). The list shows a part of the results. Calls of active or inactive are those of the source.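 How the source made its calls: active means z-score in the third read window above 3 or below -3; inactive means the rest.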

The target in this assay is Metabotropic glutamate receptor 8 (Rattus norvegicus) (UniProt P70579). As to the kind of experiment: rat mGluR8 modulators via GIRK flux, primary screen, cell-based, thallium flux, HTS (AID 488969). Conditions: HEK293 rat mGluR8, GIRK (G protein-gated inwardly rectifying potassium channel) thallium flux, FluoZin2; at 10 µM; stronger effect = higher value; submaximal glutamate (EC20) added with thallium.
UniProt P70579, sequence (P70579 whole entry, looked up): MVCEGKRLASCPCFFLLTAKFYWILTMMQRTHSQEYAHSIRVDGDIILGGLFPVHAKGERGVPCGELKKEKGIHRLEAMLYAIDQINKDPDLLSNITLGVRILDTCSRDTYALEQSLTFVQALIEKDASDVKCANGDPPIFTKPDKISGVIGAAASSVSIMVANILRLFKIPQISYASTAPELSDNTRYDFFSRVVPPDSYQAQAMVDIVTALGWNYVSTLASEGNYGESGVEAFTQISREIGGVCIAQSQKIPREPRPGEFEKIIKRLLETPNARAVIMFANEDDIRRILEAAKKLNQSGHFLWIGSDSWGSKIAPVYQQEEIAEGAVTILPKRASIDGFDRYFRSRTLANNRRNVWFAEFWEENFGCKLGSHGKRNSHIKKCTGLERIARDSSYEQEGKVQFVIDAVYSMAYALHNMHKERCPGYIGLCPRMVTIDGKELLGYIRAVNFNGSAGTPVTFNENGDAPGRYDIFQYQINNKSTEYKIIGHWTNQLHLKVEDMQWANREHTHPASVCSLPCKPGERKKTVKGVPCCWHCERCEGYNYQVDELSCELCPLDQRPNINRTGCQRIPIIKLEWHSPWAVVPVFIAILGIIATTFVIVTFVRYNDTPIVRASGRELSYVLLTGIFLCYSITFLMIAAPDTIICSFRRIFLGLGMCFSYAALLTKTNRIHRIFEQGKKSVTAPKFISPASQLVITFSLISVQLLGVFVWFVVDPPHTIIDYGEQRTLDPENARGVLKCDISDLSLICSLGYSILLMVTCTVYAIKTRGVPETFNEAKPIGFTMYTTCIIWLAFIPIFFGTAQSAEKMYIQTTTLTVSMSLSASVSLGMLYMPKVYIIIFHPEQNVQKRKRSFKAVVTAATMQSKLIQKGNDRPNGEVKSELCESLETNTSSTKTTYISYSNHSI
For `Cc1cc(C)cc(OCc2nnc(SCC(=O)c3ccccc3)o2)c1`, the z-score is -0.221.

`CCOC(=O)c1sc2ncn(C(CC)C(=O)OCC)c(=O)c2c1C` (configuration not stated): the z-score was -0.466.

On to `Cc1nn(-c2ccccc2)c2[nH]c(=O)c(CNCCN3CCOCC3)cc12`, for which the z-score was 0.0368.

For the compound `CCOC(=O)C1CCCN(C(=O)c2ccccc2SCCOC)C1` (configuration not stated), the z-score worked out at 0.188.

As for `Cc1sc2ncnc(SCc3ccco3)c2c1C`, the z-score is active: 3.43.

For `Cc1c(Cl)c(C(F)(F)F)nn1CC(=O)NCc1ccccc1`, the z-score turned out to be 0.493.

Consider `CCOc1ccc2ccccc2c1/C=N/NC(=O)CNC(=O)C(c1ccccc1)c1ccccc1`, for which the z-score came out at 0.157.

As to `CC1CC(C)CN(CCCNC(=O)c2ccc(CS(=O)(=O)Cc3ccccc3F)o2)C1` (configuration not stated), the z-score was -0.9.

On to `Cc1c(C)c2cc(Cl)c(O)c(CN(C)C)c2oc1=O`, for which the z-score is 1.04.

`Cc1cccc(C)c1OCC(=O)NNC(=O)c1ccoc1C` showed a z-score of -0.00903.

`COc1ccc(Cn2nnnc2C(CC(C)C)N2CCN(c3ccccc3)CC2)cc1` (configuration not stated) gave a z-score of -0.576.

As to `CC(C)(C)CC(=O)NC(=S)N1CCCCCC1`, the z-score is 0.0762.

`COc1cc(OC)c(NC(=O)c2ccc(Br)o2)cc1Cl` registered a z-score of -0.3.

The compound `COC(=O)c1cn(NC(=O)C2CCCO2)c(=O)c2ccccc12` (configuration not stated) gave a z-score of -0.246.

For `CSc1nc(-c2ccc(C)cc2)nc(C(Cl)Cl)n1`, the z-score worked out at 0.109.

As to `CC(C)C(=O)Nc1cccc(C(=O)NCc2ccc3c(c2)OCO3)c1`, the z-score was -0.282.

`CCOc1cccc(/C(O)=C2/C(=O)C(=O)N(CCOC)C2c2ccco2)c1` (configuration not stated) displayed a z-score of 0.0983.

On to `CC(C)CCNC(=O)NC(=O)CSc1nnc(-c2ccccc2F)n1N`, for which the z-score was -0.138.

For `CCOc1ccc(C(CCc2ccccc2)NC(=O)c2ccc(OC)c(OC)c2)cc1OCC` (configuration not stated), the z-score is -0.35.

As for `CN(C)c1nc2n(c(=O)n1)CCS2`, the z-score was -1.38.

The compound `Cc1nn(Cc2ccc(Cl)cc2)c2sc(C(=O)OCC(N)=O)cc12` came in with a z-score of 0.107.

The compound `Cc1ccc(OCCN2CCN(C(=O)CCC(=O)Nc3nnc(C)s3)CC2)cc1` yielded a z-score of -0.133.

`CC(C)OC(=O)CSc1nnnn1-c1ccc2c(c1)OCCO2` registered a z-score of 0.195.

Turning to `Cc1ccc(C)c(NC(=O)c2ccccn2)c1`, the z-score worked out at 0.832.

`Cc1ccc(CSCC(Nc2ccc(C(=O)O)cc2[N+](=O)[O-])C(=O)O)cc1` (configuration not stated): the z-score was -0.165.

With `Cn1c(C(=O)NCCCN2CCN(c3ccccc3F)CC2)cc2c(=O)n(C)c3ccccc3c21`, the z-score worked out at 2.46.

Turning to `COC(=O)c1ccccc1OC(=O)c1ccc(Br)o1`, the z-score was -0.504.

`CCOc1cccc(C(=O)Nc2ccccc2OC(F)F)c1` displayed a z-score of -0.614.

Compound `COc1ccc(C2(CNC(=O)Cc3ccc(OC)c(OC)c3)CCOCC2)cc1` returned a z-score of 0.253.

Consider `COc1ccccc1-c1cc(C(F)(F)F)nc(N2CCN(c3ccccc3)CC2)n1`, for which the z-score is 1.47.

`CCOc1ccc(N2CC(C(=O)Nc3ccccc3OC)CC2=O)cc1` (configuration not stated) had a z-score of 1.1.

On to `COc1ccc(-n2c(=O)cc(N3CCCCCC3)[nH]c2=O)cc1`, for which the z-score is -0.398.

`O=C(CCc1ccccc1)Nc1c(F)cccc1F` yielded a z-score of -0.0866.

Turning to `COC(=O)c1ccsc1NC(=O)C1=COCCO1`, the z-score is -0.298.

Take `CCN(CC)CC(=O)N1c2ccccc2Sc2ccc(Cl)cc21`: the z-score turned out to be 0.474.

For the compound `Cc1ccc(CNC(=O)c2cc3c(=O)n(C)c4ccccc4c3n2C)cc1`, the z-score amounted to 1.16.

The compound `O=C(/C=C/c1ccccc1)NC(=S)NNC(=O)c1ccco1` showed a z-score of 0.343.

For `CCCCCCNS(=O)(=O)c1ccc(OC)c(OC)c1`, the z-score was determined as 0.36.

`COC(=O)c1cc2c(s1)CS(=O)C2` (configuration not stated) yielded a z-score of -0.11.

The compound `Cc1cc(C(=O)NP(=O)(N2CCOCC2)N2CCOCC2)c(C)n1-c1ccc(Br)cc1` yielded a z-score of 0.0525.

In turn, `N#CCCN1CCN(CCC#N)CC1` showed a z-score of -0.166.

As to `COc1ccc(C(=O)N2CCN(c3nnnn3-c3ccccc3)CC2)cc1OC`, the z-score turned out to be 0.191.

The compound `CN(C)S(=O)(=O)N1CCN(c2ccc(Cl)cc2)CC1` came in with a z-score of 0.221.

`Cc1oc(-c2ccccc2)cc1C(=O)Nc1ccc2ccccc2c1` registered a z-score of -0.569.

In turn, `CSc1ccccc1-c1nnc(-c2ccc(Cl)c(Cl)c2)o1` had a z-score of -0.461.

Regarding `CCCOC1OC(=O)c2c1ccc(OC)c2OC` (configuration not stated), the z-score was -0.0106.

As for `COc1ccc(C)cc1NC(=O)C1C2C=CC(C2)C1C(=O)O` (configuration not stated), the z-score is 0.33.

Compound `O=S(=O)(c1ccc(Cl)cc1)N1CCN(Cc2c[nH]c3ccccc23)CC1` displayed a z-score of -0.199.

In the case of `COc1cc(OC)cc(C(=O)NCc2n[nH]c(=S)n2-c2ccccc2OC)c1`, the z-score is -0.981.

The compound `COc1ccc(S(=O)(=O)N(C)c2ccc(C(=O)N3CCOCC3)cc2)cc1OC` yielded a z-score of -0.116.

In turn, `O=C(CN1CCC(O)(c2ccc3c(c2)OCO3)CC1)OC1CCCCC1` gave a z-score of -0.00376.

Compound `O=C(c1ccc(F)cc1)N1CCN(c2ccc([N+](=O)[O-])c(N3CCOCC3)c2)CC1` came in with a z-score of -1.6.

Regarding `CC(=O)Nc1cc(C(=O)N2CCOCC2)ccc1S(=O)(=O)c1ccc(C)cc1`, the z-score is 0.227.

Compound `Fc1ccc2c(c1)[C@H]1OCC[C@H]1[C@@H](c1ccco1)N2` yielded a z-score of 0.236.

In turn, `COc1ccc(-n2c(SC(C)C(=O)Nc3ncc(Cl)cc3Cl)nc3ccccc32)cc1` (configuration not stated) showed a z-score of -0.385.

In turn, `Cc1ccc(NC(=O)N2CCC(C(=O)NCc3ccc(F)cc3)CC2)cc1` showed a z-score of 2.21.

In turn, `CC(NC(=O)c1ccco1)C(=O)N1CCc2ccccc2C1` (configuration not stated) yielded a z-score of -0.17.

As to `O=C(Nc1nnc(-c2ccccn2)o1)c1ccc(Br)cc1`, the z-score worked out at 2.32.

In the case of `CCOc1ccc(-c2nnc3sc(-c4ccccc4OC)nn23)cc1`, the z-score was found to be 0.597.

`COc1ccc(OC)c(NC(=O)COC(=O)CNC(=O)c2ccc(OC)c(OC)c2)c1` came in with a z-score of -0.0746.

Consider `COc1ccc2c(=O)c3c(=O)n(Cc4ccco4)c(-c4cc(OC)c(OC)c(OC)c4)nc3oc2c1`, for which the z-score is -0.406.

As for `CCN(CC)C(=O)CSC1c2ccccc2C(=O)N1c1ccccc1` (configuration not stated), the z-score came to 0.17.

As for `CCOC(=O)CSc1nnc2c(n1)C1(C)CCC2C1(C)C` (configuration not stated), the z-score was determined as 0.477.

`Clc1ccc(-c2cn3cccnc3n2)cc1Cl`: the z-score is -0.72.

In turn, `CCC(=O)N1CCc2cc(S(=O)(=O)NC(Cc3ccccc3)C(=O)NC3CCCCC3C)ccc21` (configuration not stated) registered a z-score of -0.218.

`Cc1ccc(C(=O)N(Cc2ccc3c(c2)OCO3)Cc2nc3ccccc3c(=O)[nH]2)cc1` had a z-score of 0.705.

As to `Cc1ccccc1NC(=O)Cn1nc(C(F)(F)F)cc1C1CC1`, the z-score stood at 0.0627.

Compound `COc1ccc(CCn2c(N)cc(=O)[nH]c2=S)cc1OC` showed a z-score of 0.151.

`O=C(N/N=C/c1cccc([N+](=O)[O-])c1)C1CC(=O)N(c2ccc(Br)cc2)C1` (configuration not stated) showed a z-score of -0.256.

On to `CCN1CCN(C(=O)CN(c2ccccc2C)S(C)(=O)=O)CC1`, for which the z-score was -0.338.

For the compound `CCOC(=O)N1CCN(C(=S)Nc2cccc(C)c2C)CC1`, the z-score is -0.146.

Compound `Cc1cc(C)n(S(=O)(=O)/C=C/c2ccccc2)n1` displayed a z-score of -0.135.

`O=C(COc1ccccc1)Nn1c(-c2ccccc2)nc2ccccc2c1=O`: the z-score was 0.42.

`Cc1cc(C(=O)CSc2nc3ccc(Cl)cc3[nH]2)c(C)n1C`: the z-score was determined as 0.451.

With `O=C(/C=C/c1ccc(Cl)cc1)NC(=S)Nc1ccc(N2CCOCC2)c(Cl)c1`, the z-score was -0.506.

On to `COCCn1nnnc1C(c1ccccn1)N1CCN(c2cccc(C)c2C)CC1` (configuration not stated), for which the z-score was -0.423.

In turn, `CC1(C)CC(=O)C2=C(C1)N=C1SCCC(=O)N1C2c1ccccc1` (configuration not stated) showed a z-score of 0.861.

`COc1ccc(C(=O)Nc2cccc(C(C)=O)c2)c(OC)c1OC` gave a z-score of -0.26.

For `Cc1ccc([N+](=O)[O-])cc1S(=O)(=O)NCCc1c(C)[nH]c2c(C)cccc12`, the z-score is -0.135.

On to `NC(=O)N/N=C/c1c(F)cccc1F`, for which the z-score is -0.119.

As for `CC12CC(NC(=O)N1c1cccc(C(=O)N3CCN(c4ccccc4F)CC3)c1)c1ccccc1O2` (configuration not stated), the z-score was 0.94.

Compound `CC1=NCC(C)c2c1[nH]c1ccccc21` (configuration not stated) yielded a z-score of -0.575.

As for `CC(Oc1ccccc1Cl)C(=O)N1CCOCC1` (configuration not stated), the z-score was -0.228.

`CC(C)(C)NC(=O)NC(=O)CSc1nnc2ccccn12` showed a z-score of 0.0805.

As to `CCCNC(=O)C12CCC(C)(C(=O)C1Br)C2(C)C` (configuration not stated), the z-score is -0.133.

`Cc1nn(Cc2ccccc2)c(C)c1NC(=O)CCCn1nc(C)c([N+](=O)[O-])c1C` gave a z-score of -0.199.

Take `Cc1nc2c(-c3ccc(F)cc3)c(C)nn2c(C)c1CCC(=O)N1CCC(Cc2ccccc2)CC1`: the z-score was -0.504.

`COc1ccc(NC(=O)c2ccc3c(=O)n(Cc4ccco4)c(=S)[nH]c3c2)c(OC)c1` registered a z-score of 1.5.

The compound `O=C(NCCCN1CCCCC1)c1ccc2c(c1)NC(=O)C(N1CCOCC1)S2` (configuration not stated) yielded a z-score of 0.108.

As to `COc1ccc(/C(O)=C2\C(=O)C(=O)N(Cc3ccco3)C2c2ccc(OC)cc2OC)cc1` (configuration not stated), the z-score was -0.418.

On to `CCN1C(=O)C(CC(=O)NCc2ccc(Cl)cc2)N(CC)C1=O` (configuration not stated), for which the z-score was -0.0134.

Regarding `CCC(C)(C)NC(=O)CC(c1ccc(OC)cc1)n1cccc1` (configuration not stated), the z-score worked out at 0.0297.

Take `Cc1ccc(C(C)C)c(OCCNC(=O)c2cncc(Br)c2)c1`: the z-score was found to be 0.9.

On to `O=C(NCCN1CCCCC1)c1ccc(=O)oc1`, for which the z-score is -0.572.

`O=C(Cn1cncc1-c1ccc([N+](=O)[O-])cc1)Nc1cccc2ccccc12` displayed a z-score of -0.199.

`CCOC(=O)c1c(C=O)c(C)n(Cc2ccccc2)c1C`: the z-score is -0.461.

`COc1ccccc1NC(=O)C1=C(C)N(c2ccccc2)C(=S)NC1c1cccc(C(F)(F)F)c1` (configuration not stated) showed a z-score of -0.126.

`COC(=O)Cn1c(C(F)(F)F)nc2ccccc21` yielded a z-score of -0.0297.

Regarding `Cc1ccc(NC(=O)CN2CCN(c3ccccn3)CC2)c(Cl)c1`, the z-score came out at 0.0751.

`Brc1cc2c(cc1/C=N/Nc1nc3ccccc3s1)OCO2` had a z-score of -0.128.

`CCSc1nnc(Nc2ccccc2)s1` returned a z-score of 0.582.

`O=C(Nc1nnc(SCC(=O)N2CCCc3ccccc32)s1)c1cccc2ccccc12`: the z-score was -0.294.

In the case of `CCCCC1C(C#N)=C(C)NC2=C1C(=O)CC(C)(C)C2` (configuration not stated), the z-score is -0.248.

Take `NS(=O)(=O)c1ccc(N/C=C/C(=O)c2ccc(Br)cc2)cc1`: the z-score was -0.0668.

In turn, `CC(=O)c1c(C)n(CC(=O)NCc2ccc3c(c2)OCO3)c2ccccc12` registered a z-score of 0.0406.

On to `CN(C)c1nc2c(c(N)nn2-c2ccc(Cl)cc2)c(=O)o1`, for which the z-score was 0.013.

As to `S=c1[nH]nc(-c2ccco2)n1/N=C/c1ccc(Br)s1`, the z-score was active: 4.39.

`COc1ccccc1Cc1noc(-c2cc(Cl)ccc2OC)n1` yielded a z-score of -0.104.

In the case of `S=C(N/N=C/c1ccc(Cl)cc1)N1CCOCC1`, the z-score was active: 11.9.

`CCn1c(SCc2ccc(C(=O)OC)o2)nnc1-c1c[nH]c2ccccc12` yielded a z-score of -0.0117.

`CCOc1cc(S(=O)(=O)Nc2cc(C)cc(C)c2)ccc1Cl` displayed a z-score of -0.0728.

`OC(COc1ccccc1)CN1CCN(c2ncccn2)CC1` (configuration not stated) returned a z-score of -0.153.

The values above are taken from PubChem BioAssay AID488969 (Vanderbilt High Throughput Screening Facility, 2010).
